Experimental data from PubChem BioAssay AID1745853 (National Center for Advancing Translational Sciences (NCATS), 2022).
The list shows a part of the results. Shown are side measurements of this screen, not its main read-out; they come without a call.

What was measured:
Assay in all cases: Primary Screen for Target Class Profiling of Small Molecule Inhibitors of Methyltransferases
[1] = molecular target: Glycine N-methyltransferase (Homo sapiens) (UniProt Q14749); settings: purified enzyme, MTase-Glo SAH luminescence; measured here: GNMT inhibition; at 40 µM; stronger effect = lower value
Procedure, shortened: (§1)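 Each enzyme was reacted with SAM and its substrate, with compounds tested once at 40 uM; SAH formed was read by MTase-Glo luminescence.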

[2] = molecular target: Guanidinoacetate N-methyltransferase (Homo sapiens) (UniProt Q14353); settings: purified enzyme, MTase-Glo SAH luminescence; measured here: GAMT inhibition; at 40 µM; stronger effect = lower value
Procedure, shortened: as §1

[3] = molecular target: Histamine N-methyltransferase (Homo sapiens) (UniProt P50135); settings: purified enzyme, MTase-Glo SAH luminescence; measured here: HNMT inhibition; at 40 µM; stronger effect = lower value
Procedure, shortened: as §1

[4] = molecular target: Nicotinamide N-methyltransferase (Homo sapiens) (UniProt P40261); settings: purified enzyme, MTase-Glo SAH luminescence; measured here: NNMT inhibition; at 40 µM; stronger effect = lower value
Procedure, shortened: as §1

[5] = molecular target: Phenylethanolamine N-methyltransferase (Homo sapiens) (UniProt P11086); settings: purified enzyme, MTase-Glo SAH luminescence; measured here: PNMT inhibition; at 40 µM; stronger effect = lower value
Procedure, shortened: as §1
% is scaled to controls: 0 for no effect and ±100 for the full control effect.

| SMILES | activity change, negative = inhibition [1] | activity change, negative = inhibition [2] | activity change, negative = inhibition [3] | activity change, negative = inhibition [4] | activity change, negative = inhibition [5] |
| --- | --- | --- | --- | --- | --- |
| O=C(Oc1ccc([N+](=O)[O-])cc1)N1CCN(Cc2cccc(Oc3ccccc3)c2)CC1 | -3.21% | -7.41% | 10.1% | -23.1% | -8.93% |
| Cn1nc(-c2cccs2)cc1[C@H]1CN2CC[C@H]1C[C@@H]2CNS(C)(=O)=O | -4.03% | 0.804% | -2.64% | -1.46% | 1.38% |
| Cc1cccc(C2c3cccn3-c3ccccc3CN2C(=O)NC(C)C)c1 (stereo not given) | 10.4% | 0.886% | 6.77% | 1.81% | 6.96% |
| CN1C(=O)[C@]23CC4C(C)(C)[C@@]5(C[C@@]41CN2CC[C@@]3(C)O)C(=O)Nc1c5ccc2c1OC=CC(C)(C)O2 (stereo not given in full) | 4.07% | 6.93% | 7.46% | -9.12% | 6.58% |
| CN(C(=O)C(c1ccccc1)c1ccccc1)[C@H](CN1CC[C@H](O)C1)c1ccccc1 | -5.14% | 2.29% | 3.28% | -13.9% | -2.9% |
| COc1ccc(C(CN(C)C)C2(O)CCCCC2)cc1 (stereo not given) | 4.62% | 10.4% | -1.26% | -1.51% | 9.73% |
| Cc1noc(-c2ccc(N3CC4CC(C3)c3cccc(=O)n3C4)nc2)n1 (stereo not given) | -4.03% | -5.25% | 0.199% | -4.55% | -1.3% |
| CN1[C@H]2C[C@H](OC(=O)[C@H](CO)c3ccccc3)C[C@@H]1[C@@H](O)C2 | 3.32% | 0.387% | 10.2% | -7.61% | 4.37% |
| CN1C(=O)N(c2ccc(C#N)c(C(F)(F)F)c2)C(=O)[C@@]1(CO)c1ccccc1 | 6.4% | 9.71% | 6.62% | -3.97% | 4.55% |
| O=C(NCc1ccccc1)N1Cc2ccccc2-n2cccc2C1c1cccc(Cl)c1 (stereo not given) | 12.5% | 0% | 7.9% | -2.89% | 6.3% |
| O=C(Nc1cccc(C(F)(F)F)c1)N1Cc2ccccc2-n2cccc2C1c1cccs1 (stereo not given) | 5.56% | 0% | -3.97% | 1.3% | 3.01% |
| O=C(Nc1ccc(F)cc1)N1Cc2ccccc2-n2cccc2C1c1ccccc1 (stereo not given) | 7.31% | 1.68% | 5.13% | -0.174% | 7.18% |
| CS[C@]1(CO)C(=O)N2[C@H]3C(=CC=C[C@@H]3O)C[C@@]2(SC)C(=O)N1C | 0% | 8.52% | 10.8% | -4.19% | 5.6% |
| COC(=O)CCNC(=O)N1Cc2ccccc2-n2cccc2C1c1ccc(C(C)C)cc1 (stereo not given) | -6.74% | 0% | 4.77% | 0.218% | 3.99% |
| CC(C)C1c2cccn2-c2ccccc2CN1C(=O)NCc1ccccc1 (stereo not given) | 1.55% | 0% | 2.98% | -2.17% | 5.08% |
| Cc1ccccc1NC(=O)N1Cc2ccccc2-n2cccc2C1C(C)C (stereo not given) | -0.291% | 0% | -1.8% | 3.4% | 5.36% |
| CCOc1ccccc1NC(=O)N1Cc2ccccc2-n2cccc2C1C(C)C (stereo not given) | -7.63% | 4.66% | 2.31% | -4.6% | 2.02% |
| CCOc1ccccc1NC(=O)N1Cc2ccccc2-n2cccc2C1c1ccc(CC)cc1 (stereo not given) | 10.2% | 2.51% | 4% | -0.007% | 6.91% |
| O=c1ccc(-c2ccccc2F)c2n1C[C@H]1C[C@@H]2CN(Cc2ccc(CO)o2)C1 | -14.1% | -8.11% | -5.4% | -16.1% | -4.85% |
| NNC(=O)c1nn(Cc2ccc(Cl)cc2Cl)c2ccccc12 | -15.7% | -3.13% | -10.6% | -46% | -25.3% |

| SMILES | activity change, negative = inhibition [1] | activity change, negative = inhibition [2] | activity change, negative = inhibition [3] | activity change, negative = inhibition [4] | activity change, negative = inhibition [5] |
| --- | --- | --- | --- | --- | --- |
| C=C[C@H]1CN2CC[C@H]1C[C@@H]2CNC(=O)N1CCOCC1 | -6.17% | -12.7% | -8.49% | -17.8% | -14.6% |
| CCCNC(=O)N1Cc2ccccc2-n2cccc2C1c1cccc(Cl)c1 (stereo not given) | 8.51% | 2.66% | 4.17% | -0.093% | 6.13% |
| COc1ccc(-c2ccc3n(c2=O)C[C@H]2C[C@@H]3CN(S(C)(=O)=O)C2)cc1 | -1.91% | 0.57% | 1.28% | -1.21% | 2.97% |
| c1ccc(C2CC2)c(OCC2=NCCN2)c1 | -0.913% | 10.7% | 2.22% | -17.3% | 3.21% |
| CCc1ccc(C2c3cccn3-c3ccccc3CN2C(=O)Nc2ccccc2C)cc1 (stereo not given) | 12.9% | 3.08% | 6.98% | 0.545% | 6.9% |
| CCCNC(=O)N1Cc2ccccc2-n2cccc2C1c1ccc(C)cc1 (stereo not given) | -1.45% | 0.32% | 2.09% | -2.08% | 4.64% |
| COCCO[C@H]1COCCN(C2CCOCC2)C1 | -3.54% | -2.82% | -0.367% | -1.66% | -0.109% |
| CN1C(=O)c2ccccc2NC(=O)C1Cc1ccccc1 (stereo not given) | 3.36% | 2.65% | 9.03% | -13.2% | -1.37% |
| Cc1ccc(C)c(NC(=O)N2Cc3ccccc3-n3cccc3C2c2ccc(Cl)cc2)c1 (stereo not given) | 1.93% | 0% | 0.374% | 5.41% | 6.17% |
| NCC(CP(=O)(O)O)c1ccc(Cl)cc1 (stereo not given) | 12.5% | 12.2% | 14.6% | -5.81% | 0.911% |
| CC(=O)OC[C@]12C[C@H](O)C(C)=C[C@H]1O[C@@H]1[C@H](O)[C@@H](O)[C@@]2(C)[C@]12CO2 | 0.5% | 4.61% | 3.68% | -9.59% | 0.426% |
| COc1ccc(NC(=O)N2Cc3ccccc3-n3cccc3C2c2ccc(F)cc2)cc1OC (stereo not given) | -0.87% | 6.4% | 5.92% | -2.25% | 5.98% |
| CCC1(N2CCN(C(=O)Cc3c[nH]c4ccccc34)CC2)CCN(S(C)(=O)=O)C1 (stereo not given) | -4.82% | -4.51% | -1.86% | -9.1% | 9.29% |
| C/C=C1/CN2CC[C@]34C(=Nc5ccc(OC)cc53)C2C[C@@H]1C4(CO)C(=O)OC (stereo not given in full) | -0.491% | -5.12% | -16.3% | -16.2% | 0.649% |
| COc1ccc(NC(=O)N2Cc3ccccc3-n3cccc3C2c2ccc(SC)cc2)cc1 (stereo not given) | 0.471% | 0% | 7.63% | 5.35% | 5.41% |
| O=C(Nc1ccc(F)cc1F)N1Cc2ccccc2-n2cccc2C1c1cccs1 (stereo not given) | 5.08% | 3.92% | -5.48% | -13.7% | -0.57% |
| CC(=O)OC[C@]12C[C@H](OC(=O)CC(C)C)C(C)=C[C@H]1O[C@@H]1[C@H](O)[C@@H](O)[C@@]2(C)[C@]12CO2 | 0% | 3.33% | 2.71% | -11.3% | 3.88% |
| c1cncc(C2=NOC3(CCN(C4COC4)CC3)C2)c1 | -1.44% | -5.58% | 0.465% | -3.39% | -2.98% |
| O=C(Cc1ccc(Cl)c(Cl)c1)N1CCCCC1CN1CCCC1 (stereo not given) | -6.36% | 7.63% | -4.77% | -11.1% | -2.01% |
| COc1cccc(NC(=O)N2Cc3ccccc3-n3cccc3C2c2ccccc2Cl)c1 (stereo not given) | 9.16% | 1.7% | 2.16% | 2.64% | 6.13% |
